# According to the supplement of paper PMC3334620:
# Over roughly 33,000 sequences, “E-score (-0.5 to 0.5)” has its median near -0.032; the highest 2% begin near 0.36. Some of the results follow.
# Target: T1, Sko1 (UniProt Q02100)
# T1 sequence: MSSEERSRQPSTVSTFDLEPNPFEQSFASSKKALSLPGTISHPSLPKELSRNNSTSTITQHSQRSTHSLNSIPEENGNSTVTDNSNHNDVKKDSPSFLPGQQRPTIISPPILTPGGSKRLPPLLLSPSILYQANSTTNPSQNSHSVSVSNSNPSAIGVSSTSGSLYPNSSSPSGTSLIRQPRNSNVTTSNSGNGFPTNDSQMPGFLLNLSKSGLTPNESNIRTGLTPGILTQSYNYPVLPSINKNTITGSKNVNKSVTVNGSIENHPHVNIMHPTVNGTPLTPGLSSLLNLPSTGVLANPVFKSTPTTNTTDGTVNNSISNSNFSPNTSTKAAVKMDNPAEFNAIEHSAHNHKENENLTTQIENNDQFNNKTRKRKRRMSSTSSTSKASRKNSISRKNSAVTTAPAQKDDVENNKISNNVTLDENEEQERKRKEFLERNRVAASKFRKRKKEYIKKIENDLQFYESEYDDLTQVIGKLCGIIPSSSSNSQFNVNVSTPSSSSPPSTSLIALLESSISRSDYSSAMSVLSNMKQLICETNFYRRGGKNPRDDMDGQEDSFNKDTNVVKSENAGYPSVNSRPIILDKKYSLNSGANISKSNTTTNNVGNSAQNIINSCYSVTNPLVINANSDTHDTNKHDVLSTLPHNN
# Test: PBM E-score (8-mer binding enrichment) (E-score (-0.5 to 0.5)); higher = stronger / more preferred TF binding; most listed sequences are background and not binding sites
# Conditions: protein concentration: 200 nM; construct: GST-full length
# How it was run: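 E-scores (a modified Wilcoxon-Mann-Whitney statistic) were assigned by the Universal PBM Analysis Suite to every ungapped eight-base word pooled with its reverse complement. The input came from universal all-10-mer Agilent arrays made double-stranded by primer extension and probed with GST-tagged yeast transcription factors at about 100-200 nM. Fluorescent anti-GST detected bound protein, and masliner normalised the scans.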
row,Sequence,PBM E-score
1,ACGAATCT,0.255
2,GCCACAAA,0.0745
3,CGATTCAA,-0.0398
4,ATCACACC,-0.0596
5,CATGTGGA,-0.107
6,GGGCTCAC,-0.199
7,AGACGAAC,0.115
8,ACCAGGTC,-0.264
9,CTCTACAC,-0.259
10,CAGGACAA,0.0814
11,GAAAATCA,0.121
12,CCGTACGA,0.0901
13,CCGGCCGC,-0.294
14,AGTCATGC,-0.0777
15,CCCACGTA,0.39
16,CTTCACCA,-0.175
17,AGGAAATA,0.163
18,ACACTCAG,-0.0491
19,AATTGTAT,0.0636
20,ATTTTGGA,0.149
21,CACTTCCC,-0.103
22,ACAGTGTC,-0.18

row,Sequence,PBM E-score
1,TGTCAAAA,0.121
2,CTGAAATC,0.0112
3,CTCTAGGA,-0.335
4,AAAAAAGG,-0.0708
5,AGGAATCA,0.0412
6,AGCCCTGA,-0.127
7,GAGTCGTA,0.116
8,ACTGAATC,-0.0863
9,GGCCCGTA,-0.123
10,AATTCTAT,0.1
11,CCTTTGCG,0.128
12,GTTGTGTA,0.0323
13,CAAGAAAG,-0.0549
14,CCACCCCC,-0.379
15,CTTGTATA,-0.0926
16,CCAATCAC,0.0045
17,TCCCGGCA,-0.237
18,TCTAACAA,0.0283
19,AGGAACCA,-0.112
20,ATGTGCTG,-0.0303
21,AGTACTGC,-0.0861
22,GTCTGTGA,0.0518

row,Sequence,PBM E-score
1,ACACGGCT,-0.222
2,ATACCAAC,0.19
3,AATTGCTG,0.21
4,GCCATGAA,-0.219
5,CATACGCG,0.246
6,CCCTTGCA,-0.229
7,GGAGACGA,-0.0627
8,GTCAGACA,0.0919
9,ATGCGGCC,-0.125
10,CGGCCACC,-0.17
11,TAACCCCA,-0.265
12,GCATCGAC,-0.125
13,CCAATGAC,0.253
14,ATCAGCTG,0.0587
15,CCAGGCGA,-0.321
16,GATCGTTA,-0.0704
17,TCCTAAAA,0.132
18,CACCAGAA,-0.0828
19,AGGACACA,0.15
20,GATGACGA,0.474
21,CTTCCGAA,-0.134
22,CATTCCAA,0.189

row,Sequence,PBM E-score
1,CGCCAGAA,-0.112
2,CTAGAAGA,0.0318
3,ACCGGCCC,-0.23
4,AAGCTCCA,-0.0257
5,TTAGGAAA,-0.0404
6,CGGGTATC,-0.195
7,GCGGTCGA,-0.0383
8,TGGGGCAA,-0.224
9,AGGAATAC,0.0259
10,CATAAAGC,-0.0786
11,ATACACAG,-0.136
12,GGGTTATA,0.0376
13,ATATTTAG,0.226
14,GATCCGGA,-0.272
15,AATTTCGC,0.0675
16,ATACGGCG,0.0396
17,ATAGCATC,0.16
18,CACTCTTA,-0.00406
19,GACACCTC,-0.167
20,CTTGAAAC,-0.0486
21,GCCCGGGC,-0.186
22,GCGTGTCA,0.216

row,Sequence,PBM E-score
1,ACTCCAGA,-0.0951
2,CTTCGACA,-0.0275
3,AGAACGAT,-0.0494
4,ACTAGTAG,0.0587
5,ATGCGCAC,0.139
6,CGGAATAC,0.0896
7,AGGTCTCA,-0.131
8,ATCGTACA,0.168
9,AGGAAGAG,-0.157
10,CATCCTAG,-0.052
11,ACACTCTA,0.183
12,ACGGAGAG,-0.221
13,TCCTCACA,-0.0737
14,TACTAAAA,0.135
15,ACCCGTCT,-0.0961
16,AAATGTCA,0.108
17,GAGAGTGA,0.045
18,CCGAACGA,-0.133
19,GGGAAACA,-0.124
20,AATGTATG,0.127
21,ATTTTTTA,0.194
